# PubChem BioAssay AID1345082 (National Center for Advancing Translational Sciences (NCATS), 2018)
# In all, about 94,000 compounds went through this assay and about 4,000 (4.3%) were called active. Inconclusive means that the source gave no clear call. Such entries were picked first, then a sample of the others. The call rests on the fitted dose curve; in most records, active means well fitted inhibition curve with a large enough effect; inconclusive means small, poorly fitted or top-dose-only effect; inactive means no such curve, though single readings can be large or run the other way. Potencies beside an inconclusive call are fits to weak or partial responses and may not hold up.
# Assay: Cytotoxic Profiling in NIH 3T3 Cell Line of Diverse Libraries Using Quantitative High-Throughput Screening; further: nearly all actives have a fitted effect of over 55% in size
# Conditions: NIH 3T3 viability, CellTiter-Glo ATP luminescence, 48-72 h; activity change, negative = cytotoxicity: at 96.7 µM (top of the series) unless noted; series mostly up to 96.7 µM
# Method in brief: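 First NIH 3T3 cells are plated at 400 cells/well; next compound is pinned in; then plates incubate 48 or 72 hr at 37 °C; finally CellTiter-Glo is added and luminescence read after 10 min.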
# On the % scale 0 is the no-effect control and ±100 the full control effect; potency means the concentration at half of the fitted maximal effect; tags describe the fitted curve by direction and shape.
SMILES,Potency,outcome,"activity change, negative = cytotoxicity"
COc1ccc(C(=O)N[C@H]2CC[C@]3(C)CCC([C@H](C)C(=O)NCc4ccccc4)[C@H](O)[C@H]3[C@@H]2C)cc1 (stereo not given in full),"inconclusive: 50.1 µM [inhibitor, partial curve, poor fit]",,
COc1ccccc1-c1cc(C(=O)N(C)C)nn2cnnc12,,inactive [at 138 µM],
c1ccc2c(c1)COC1(CCNC1)CN2CC1CCCC1 (stereo not given),active: 35.5 µM,,
CN(C)c1ccc(-c2noc([C@@H]3CCCN3CC3CCCCC3)n2)cn1,active: 79.4 µM,,
Cc1nnc2ccc(N3CCCN([S+](C)(=O)[O-])CC3)nn12,"inconclusive: 89.1 µM [inhibitor, partial curve]",,
COCC1CCN(c2ccc(-c3nc(-c4ccccc4C)no3)cn2)C1 (stereo not given),,,inactive: -25%
CN1CCCN(S(=O)(=O)c2ccc(C(F)(F)F)cc2)c2ccccc21,"inconclusive: 44.7 µM [inhibitor, partial curve, poor fit]",,
COc1ccccc1CN(Cc1ccccc1OC)[C@H]1C[C@@H](Cc2cc(CN3CCOCC3)on2)C1(C)C,,,inactive: -16.8%
O=C(c1cccnc1)N1C[C@@H](F)[C@@H](OCc2nc3ccc(C(F)(F)F)cc3[nH]2)C1,"inconclusive: 31.6 µM [inhibitor, partial curve, poor fit]",,
CCC(=O)N1Cc2ccccc2CC2(CCN(Cc3ccccn3)CC2)C1,,,inactive: -2.22%
COc1cccc(CN2CCOc3ccc(C(=O)NCc4ccc(C)cc4)cc3C2)c1,"inconclusive: 44.7 µM [inhibitor, partial curve, poor fit]",,
Cc1cccc(-c2ocnc2C(=O)N2CCC3(CCC(=O)N(CC4CC4)CC3)CC2)c1,"inconclusive: 50.1 µM [inhibitor, partial curve, poor fit]",,
COc1cccc(C(=O)N2CCOc3ccc(CN4CCc5ccccc5C4)cc3C2)c1,"inconclusive: 35.5 µM [inhibitor, partial curve]",,
CCN1c2cc(C(=O)Nc3ccc(OC)cc3)ccc2C(=O)N2CCCC21 (stereo not given),,,inactive: 4.11%
CCOc1ccccc1C(=O)NC1CCN(c2cc(-c3ccc(Cl)cc3)[nH]n2)C1 (stereo not given),"inconclusive: 35.5 µM [inhibitor, partial curve, poor fit]",,
Cc1cnc(CC2CCN(C(=O)C3CCC3)C2)n1Cc1ccccc1 (stereo not given),,,inactive: -14.1%
O=C(NCc1cccnc1)c1ccc2nccn2c1,inactive,,
CN1CCC(N[C@H]2C[C@@H](Cc3cc(-c4ccccc4)on3)C2(C)C)CC1,active: 8.91 µM,,
COc1ccccc1Nc1ncc2c(n1)CN(C(=O)c1cccc(C#N)c1)CCN2,,,inactive: -24.1% [at 138 µM]
CCCNC(=O)N1CC(C(=O)N(C)C)C2(CCOCC2)C1 (stereo not given),,,inactive: -11.4%
COc1ccc(Nc2ccnc(N3CCCC(C(=O)NCC(F)F)C3)n2)cc1 (stereo not given),"inconclusive: 44.7 µM [inhibitor, partial curve, poor fit]",,
O=C(Nc1nccs1)[C@@H]1C[C@@H](c2cccc(C(F)(F)F)c2)N(CC2CCOCC2)C1,active: 79.4 µM,,

SMILES,Potency,outcome,"activity change, negative = cytotoxicity"
C[C@@]12CO[C@H](c3ccccc3)C[C@@H]1C[C@@H](N1CCN(Cc3ccccn3)CC1)C2,,,inactive: -27.8%
NCCn1cc(C(=O)NCC(O)CN2CCCCCC2)nn1 (stereo not given),,inactive,
O=C(CCC[C@H]1NC[C@@H]2CC1CN(Cc1ccccc1)C2)NCc1ccc(F)cc1,"inconclusive: 50.1 µM [inhibitor, single point]",,
CCOC(=O)[C@@H]1CN(C(=O)Cc2ccc(OC)cc2)[C@H]2c3ccc(OC)cc3O[C@@H]12,"inconclusive: 50.1 µM [inhibitor, partial curve, poor fit]",,
COc1nc2nc(CC3CC3)n(C)c2cc1-c1ccnc(C)c1,"inconclusive: 89.1 µM [inhibitor, partial curve]",,
COCCNC(=O)c1ccc(CC2CCN(C(=O)CCc3ccc(OC)cc3)CC2)cc1,,,inactive: -28.5%
COc1ccc(-c2cc(N3CCC(NC(=O)c4cc(F)ccc4Cl)CC3)n[nH]2)cc1,"inconclusive: 11.2 µM [inhibitor, full curve, poor fit]",,
Cn1ncc2c(C(=O)NCC(F)(F)F)cc(C(C)(C)C)nc21,"inconclusive: 56.2 µM [inhibitor, partial curve, poor fit]",,
COCCNC(=O)C(C)(C)Oc1nn(Cc2cccc(Cl)c2)c2ccccc12,"inconclusive: 50.1 µM [inhibitor, partial curve, poor fit]",,
CN1C(=O)[C@H](OC(N)=O)[C@@H](C(=O)Nc2ccccc2)C12CCN(C(=O)c1ccco1)CC2,"inconclusive: 56.2 µM [inhibitor, partial curve, poor fit]",,
O=C1c2cnc(-c3ccccc3)nc2OCCN1c1cccc(C(F)(F)F)c1,"inconclusive: 100 µM [inhibitor, single point]",,
O=C(Nc1ccc(F)cc1)N[C@H]1[C@H](O)[C@@H](N2CCN(c3ccccc3)CC2)[C@@H]2OC[C@H]1O2,"inconclusive: 11.2 µM [inhibitor, full curve, poor fit]",,
CN1CC2(CCOC2)N(C2CCN(C(=O)COc3ccccc3)CC2)C1=O (stereo not given),,,inactive: -35.9%
COc1ccccc1C(=O)N1CCn2c(nnc2-c2ccc(NC(C)=O)cc2)C1,,,inactive: -14.6%
CN1CCCC2(C1)CN(Cc1cccnc1)c1ccc(C(=O)NCC3CCCCC3)cc12 (stereo not given),active: 35.5 µM,,
O=C(c1ccco1)N1CCC2(CC1)CC(N(Cc1ccc(F)cc1)C1CC1)CCO2 (stereo not given),"inconclusive: 50.1 µM [inhibitor, partial curve, poor fit]",,
COc1ccc(C(=O)N2CCc3nnc([C@@H]4C[C@@H](O)CN4C(C)C)n3CC2)cn1,,,inactive: -18.1%
COc1ccccc1C(=O)Nc1ccc2c(c1)CN(Cc1ccccc1)C(=O)C(C)O2 (stereo not given),"inconclusive: 31.6 µM [inhibitor, full curve]",,
CC(C)CN1C(=O)c2ccccc2C(C(=O)N2CCSCC2)C12CCCC2 (stereo not given),"inconclusive: 79.4 µM [inhibitor, single point]",,
COc1ccccc1-c1ccc(CN2C3CCC2CN(C(=O)c2ccncc2)C3)cc1,"inconclusive: 44.7 µM [inhibitor, partial curve, poor fit]",,
CC(C)NC(=O)c1ccc2oc(-c3ccccn3)nc2c1,,,inactive: -29.5%
CCC(=O)N1CCN(C2CCN(CCOC)C2=O)CC1 (stereo not given),,,inactive: 4.58%

SMILES,Potency,outcome,"activity change, negative = cytotoxicity"
O=c1[nH]c(C2CCCN(Cc3cccc4ccccc34)C2)nn1-c1ccccc1 (stereo not given),"inconclusive: 50.1 µM [inhibitor, partial curve, poor fit]",,
CCCCCNC(=O)C1CCN(C(=O)c2ccc(-c3cncnc3)cc2)CC1,"inconclusive: 44.7 µM [inhibitor, partial curve, poor fit]",,
COc1ccccc1CCC(=O)NC1CCCN(c2cc(-c3ccc(F)cc3)[nH]n2)C1 (stereo not given),"inconclusive: 50.1 µM [inhibitor, partial curve, poor fit]",,
O=C(c1ccccc1)N1CCCC2(CN[S+](=O)([O-])c3cnccc3N2)C1 (stereo not given),,,inactive: -11.1%
Cc1ccc(-c2nc(C(=O)NCc3ccc(F)cc3Cl)no2)cc1,"inconclusive: 70.8 µM [inhibitor, single point]",,
O=C(NCc1cccc(C(F)(F)F)c1)c1nc2sccn2c1-c1ccc(C(F)(F)F)cc1,"inconclusive: 15.8 µM [inhibitor, full curve]",,
CC(=O)N1CCC(c2nnc3n2C(C(=O)Nc2ccc(F)cc2)CC3)CC1 (stereo not given),,,inactive: -22.4% [at 138 µM]
COc1ccc(N2CC(C(=O)N3CCC(C(=O)NC(C)C)C3)NC2=O)cc1 (stereo not given),inactive,,
CCCC(=O)N1Cc2ccccc2CC2(CCN(CCC)C2)C1 (stereo not given),"inconclusive: 89.1 µM [inhibitor, partial curve, poor fit]",,
COC(=O)[C@@H]1Cc2c([nH]c3ccccc23)[C@H]2C[C@@H](NCCO)C[C@@H](c3ccccc3)N21,active: 31.6 µM,,
CNCCN(C)C(=O)C1CCCN(C2CCN(C3Cc4ccccc4C3)CC2)C1 (stereo not given),"inconclusive: 56.2 µM [inhibitor, partial curve, poor fit]",,
CC1(C)[C@H](Cc2cc(CN3CCOCC3)on2)C[C@@H]1NC(=O)c1ccnc(Cl)c1,"inconclusive: 89.1 µM [inhibitor, partial curve]",,
CC(C)C(=O)N1CCc2[nH]nc(C(=O)NCCCc3ccccc3)c2C1,"inconclusive: 7.94 µM [inhibitor, full curve, poor fit]",,
Cn1cccc1C(=O)N1CCO[C@@H](COc2ccccn2)[C@@H]1c1ccccc1,"inconclusive: 50.1 µM [inhibitor, partial curve, poor fit]",,
O=C(Nc1ccccc1)N1CCC(C(=O)N2CCC(c3nc4ncccc4[nH]3)CC2)CC1,,,inactive: -12.2%
O=C(NC1CCN(c2ccc3nnc(C4CC4)n3n2)CC1)c1ccc(F)cc1,"inconclusive: 44.7 µM [inhibitor, partial curve, poor fit]",,
O=C(C1COc2ccccc2O1)N1CCc2nc3cc(-c4ccccc4)[nH]n3c(=O)c2C1 (stereo not given),"inconclusive: 79.4 µM [inhibitor, single point]",,
COCCN1CCNc2nc(COc3cccc(C#N)c3)n(Cc3ccccc3)c2C1=O,,,inactive: -16.6% [at 138 µM]
CCNC(=O)Nc1ccc2c(c1)CN(Cc1ccc(Cl)cc1)C(=O)C(C)O2 (stereo not given),"inconclusive: 44.7 µM [inhibitor, partial curve, poor fit]",,
COc1ccc(C(=O)N2CCCCCCN(C)C(=O)[C@@H]3CCC[C@@H]32)cc1F,"inconclusive: 70.8 µM [inhibitor, single point]",,
Cc1cccc(CN2CCc3nc(C(=O)Nc4ccc(Cl)cc4)oc3CC2)c1,"inconclusive: 35.5 µM [inhibitor, full curve]",,
